In PubChem BioAssay AID1346428 (National Center for Advancing Translational Sciences (NCATS), 2018) one finds activation data, which are given here for 84 molecules.

Molecules are shown by their SMILES. The campaign covered roughly 48,000 compounds. About 1,200 (2.5%) were called active. Roughly 2% stayed inconclusive and do not appear here.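 Rule for the calls: active = activation of at least 60% and not above a set upper limit (about 1 call in 100 departs from these limits); inconclusive = activation of 40% to 60%, or above that upper limit; inactive = activation under 40%.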 Some of the results follow.

Chain of UniProt O75388 (O75388 whole entry, looked up, the tested form may be a part): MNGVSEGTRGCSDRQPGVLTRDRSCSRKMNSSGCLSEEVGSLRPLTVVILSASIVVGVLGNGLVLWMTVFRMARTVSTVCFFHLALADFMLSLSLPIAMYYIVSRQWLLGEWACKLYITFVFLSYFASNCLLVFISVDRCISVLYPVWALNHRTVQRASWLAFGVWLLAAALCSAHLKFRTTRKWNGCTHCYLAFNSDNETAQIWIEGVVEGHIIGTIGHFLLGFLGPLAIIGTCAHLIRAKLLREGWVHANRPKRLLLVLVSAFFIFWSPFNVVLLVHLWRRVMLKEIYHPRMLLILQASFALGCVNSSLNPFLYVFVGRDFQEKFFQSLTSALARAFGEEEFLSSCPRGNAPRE

The test has as its target Probable G-protein coupled receptor 32 (Homo sapiens) (UniProt O75388). Nature of the test: qHTS for Agonists of Human Resolvin D1 Receptor DRV1. Note: 0% is about no effect. Particulars: CHO-K1 GPR32 beta-arrestin PathHunter luminescence, 90 min; at 76.9 µM; active compounds read high; zero percent set by DMSO-only wells. Summed up:
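Agonism was scored by beta-Gal fragment complementation (chemiluminescent read, 1 h detection at ambient temperature) reporting beta-arrestin binding to GPR32 in engineered CHO-K1 cells. Compound treatment lasted 90 min at 37 C, normalized to a DMSO basal control.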
Take `COc1ccccc1-c1cc(C(=O)Nc2cc(Cl)ccc2O)no1`: the activation was inactive: 18.2%.
With `CCOc1ccc(CNC(=O)c2cnc3sc(N4CCC(C)CC4)nn3c2=O)cc1OC`, the activation is inactive: 22.6%.
`Cc1c(C(=O)N(C)c2cccc(C(F)(F)F)c2)sc2nc3n(c(=O)c12)CCCCC3`: the activation was inactive: -25.8%.
The result for `CCOc1ccc(OCC(=O)Nc2c(C(=O)Nc3ccc(C)cc3)oc3ccccc23)cc1` reads inactive: -2.54%.
As for `O=S(=O)(Nc1cccc(-c2ccc(N3CCCCC3)nn2)c1)c1ccc(Cl)s1`, the activation was inactive: -6.32%.
The result for `Fc1ccc(CNc2nc3ccc(Cl)cc3n3nnnc23)cc1` reads inactive: 2.15%.
The same measure for `COc1cccc(-n2c(=O)c3sc4ccccc4c3n(CC(=O)Nc3cccc(Cl)c3)c2=O)c1`: inactive: -4.43%.
`O=c1[nH]c(=O)n([C@H]2C[C@@H](O)[C@@H](CO)O2)cc1C=CBr`: the activation is inactive: 4.16%.
With `CCSc1ncc(Cl)c(C(=O)N2CCN(c3ccc(OC)cc3)CC2)n1`, the activation is inactive: 1.4%.
As for `C=Cc1ccc(Cn2c(=O)n(-c3cccc(C)c3)c(=O)c3c2c2cc(C)ccc2n3C)cc1`, the activation is inactive: 10.3%.
The result for `O=S(=O)(c1cccc(Cl)c1)c1nnn2c1nc(NC1CCCCCC1)c1sccc12` reads inactive: 3.97%.
For `CCN(CC)CCCNC(=O)c1ccc2nc(CCc3ccccc3)oc2c1`, the activation is inactive: -12.2%.
Take `O=C(Nc1ccc2c(c1)N(C1CCCC1)C(=O)c1ccccc1S2)c1ccc(F)cc1`: the activation is inactive: -5.8%.
Turning to `CCN(CC)c1ccc(NC(=O)C2COc3ccc(OC)cc3C2)c(C)c1` (centres undefined), the activation is inactive: -6.65%.
The result for `COC(=O)N[C@H](C(=O)N[C@@H](Cc1ccccc1)[C@@H](O)CN(Cc1ccc(-c2ccccn2)cc1)NC(=O)[C@@H](NC(=O)OC)C(C)(C)C)C(C)(C)C` reads inactive: -3.75%.
For `Cc1ccc(S(=O)(=O)c2c(C)nn(-c3ccccc3)c2OC(=O)c2ccccc2F)cc1`, the activation was inactive: 11%.
For `O=C(NC1CC(=O)N(c2ccc(Cl)cc2)C1)c1ccc(S(=O)(=O)N2CCCC2)cc1` (centres undefined), the activation was inactive: 5.38%.
For the molecule `Cc1ccccc1CSc1nnc2[nH]c(=O)cc(C)n12`, the activation was inactive: 15.2%.
`O=C(Cn1cc(S(=O)(=O)Cc2ccc(F)cc2)c2ccccc21)NCc1ccccc1Cl`: the activation is inactive: -14.4%.
The result for `O=C(NCCCc1nc2ccccc2n1Cc1ccc(Cl)cc1)c1ccco1` reads inactive: -16%.
Regarding `CCOc1ccc(NC(=O)CSc2nnc(-c3ccc(C)cc3)c(-c3ccc(C)cc3)n2)cc1`, the activation was inactive: -19.4%.
The result for `Cc1oc2ncn(CC(C)C)c(=O)c2c1C(=O)NCCCN(Cc1ccccc1)C(C)C` reads inactive: -6.15%; that for `CNC[C@H](O)[C@@H](O)[C@H](O)[C@H](O)CO`, inactive: -6.57%.
On to `COc1ccc(-n2c(SCc3ccccc3F)nc3c([nH]c4ccccc43)c2=O)cc1`, for which the activation was inactive: 32.5%.
As for `Nc1ccc(S(=O)(=O)Nc2cnc3ccccc3n2)cc1`, the activation was inactive: -26.9%.
`Cc1ccccc1N1CCN(S(=O)(=O)c2nnc(NC(=O)c3ccc(Cl)cc3)s2)CC1`: the activation was inactive: 10.6%.
The same measure for `CCOc1ccccc1NS(=O)(=O)c1cnc(N)nc1`: inactive: -13.8%; for `CCc1cccc(C)c1NC(=O)CSc1nnc(N)s1`: active: 93.6%; for `COc1ccc(CCNC(=O)C(=O)NCC(c2ccco2)S(=O)(=O)c2ccccc2)cc1OC` (centres undefined): inactive: -7.03%.
The result for `COc1ccc(CCNC(=O)CS(=O)Cc2nc(-c3ccc(C)cc3)oc2C)c(OC)c1` (centres undefined) reads inactive: -10.3%; that for `O=C(Cn1c(=O)nc(-c2ccccc2)c2ccccc21)NCCCc1ccccc1`, inactive: 23.1%; that for `CCc1cccc(NCc2ccccc2-c2nnc(-c3ccccc3Cl)o2)c1`, inactive: -18%.
The result for `CCCC12CN3CC(C)(CN(C1)C3c1cn(C)c3ccccc13)C2=O` (centres undefined) reads inactive: -0.244%; that for `CCn1c(CN2CCOCC2)nc2cc(NC(=O)c3cc(OC)c(OC)c(OC)c3)ccc21`, inactive: -19%; that for `NCCCC(O)(P(=O)(O)O)P(=O)(O)O`, inactive: 5.74%.
On to `CC(=O)c1ccc(NC(=O)C2CCC(CNS(=O)(=O)c3ccc4c(c3)CCCC(=O)N4)CC2)cc1` (centres undefined), for which the activation is inactive: 8.98%.
The same measure for `COc1ccccc1N1CCN(C(=O)Cc2c(C(=O)O)c(C)cn2C)CC1`: inactive: -5.22%; for `COc1ccc(-c2cc(C(=O)NCc3ccccc3)c3c(-c4ccccc4)[nH]nc3n2)cc1`: inactive: 1.75%.
In the case of `CC1CCN(C(=O)Cn2ncc3c4ccccc4n(Cc4ccc(Cl)cc4)c3c2=O)CC1`, the activation is inactive: -12.8%.
The same measure for `CC(=O)c1ccc(NC(=O)c2cc(-c3ccc(Cl)c(Cl)c3)on2)cc1`: inactive: 9.47%.
Take `CCc1ccccc1NC(=O)C1CCCN(c2nnc(-n3c(C)ccc3C)s2)C1` (centres undefined): the activation was inactive: -22%.
`Cc1ccc2nc(N3CCN(c4cccc(C)c4C)CC3)c3nnnn3c2c1`: the activation was inactive: -16.8%.
For `COc1ccccc1CNC(=O)c1cccc(Nc2nc3ccccc3n3nnnc23)c1`, the activation was inactive: -8.33%.
Consider `CCC1CN(C(=O)N2CCC(C(=O)NCc3cccs3)CC2)c2cc(C)ccc2O1` (centres undefined), for which the activation is inactive: -6.04%.
As for `Cc1ccccc1Nc1c2c(nc3nncn13)CCC2`, the activation is inactive: -7.05%.
The same measure for `O=C(CC1(O)C(=O)N(CCc2ccccc2)c2ccc(Br)cc21)c1ccccc1O` (centres undefined): inactive: -44.7%; for `CCOc1ccc(-c2cc(C(=O)NCc3ccccc3)c3c(-c4ccc(CC)cc4)[nH]nc3n2)cc1`: inactive: -17.9%; for `O=C(COc1ccc(F)cc1)Nc1ccc2nc(SCc3ccccc3)sc2c1`: inactive: 0.107%.
The same measure for `CCc1cccc(NC(=O)CSc2ncc3c(n2)-c2ccccc2N(Cc2ccccc2C)S3(=O)=O)c1`: inactive: -3.83%; for `CC(C)(C)C(=O)Nc1c(C(=O)N2CCN(c3ccc(F)cc3)CC2)oc2ccccc12`: inactive: -0.0327%.
The result for `COc1ccc(NC(=O)Cc2csc(C)n2)cc1` reads inactive: -5.89%; that for `CC(=O)c1ccc(NC(=O)NCCc2c[nH]c3ccccc23)cc1`, inactive: 2.28%.
On to `Oc1ccc(CCNCCCCCCNCCc2ccccc2)cc1O`, for which the activation is inactive: -3.84%.
In the case of `CC(C)c1nn2c(=O)cc(COC(=O)c3ccc(NC(=O)CCc4ccccc4)cc3)nc2s1`, the activation is inactive: -10.9%.
`Cc1cccc(NC(=O)CSc2nnc(CNC(=O)c3c(F)cccc3Cl)o2)c1C`: the activation was inactive: -2.17%.
Take `CCOC(=O)C1CCN(S(=O)(=O)c2cc(-c3cc(C)no3)ccc2C)CC1`: the activation was inactive: -16.4%.
Turning to `Cc1cccc(-c2nc3scc(CCNC(=O)c4ccccc4Cl)n3n2)c1`, the activation is inactive: -21.1%.
The result for `CCCCCn1c(=O)[nH]c2cc(C(=O)Nc3ccc(F)cc3)ccc2c1=O` reads inactive: 3.88%; that for `CC1CCN(CCNC(=O)c2ccc(Cn3c(SCc4ccccc4)nc4cccnc43)cc2)CC1`, inactive: -16.4%; that for `CCN(c1ccc(Cl)cc1)S(=O)(=O)c1nnc(NC(=O)C(C)C)s1`, inactive: -8.83%.
In the case of `CCC(=O)Oc1ccc(-c2nc3ccccc3c(=O)o2)cc1`, the activation was inactive: 38.8%.
Regarding `O=C1C(c2[nH]c3ccccc3c2O)=Nc2ccccc21`, the activation is inactive: -35%.
As for `CN1CCC(Nc2ncc3ncnc(Nc4ccc(F)c(Cl)c4)c3n2)CC1`, the activation was inactive: 24.1%.
The result for `CCOC(=O)c1ccccc1NC(=O)Cn1c(=O)n(Cc2ccccc2)c(=O)c2c(C)c(C)sc21` reads inactive: -1.27%; that for `CC(C)(C)OC(=O)N1CCC(c2c(C(=O)NCc3ccco3)cnn2-c2ccc(F)cc2)CC1`, inactive: -3.53%.
In the case of `Cc1ccc(-n2ncc(C(=O)N3CCN(Cc4ccccc4)CC3)c2C2CCN(C(=O)OC(C)(C)C)CC2)c(C)c1`, the activation was inactive: -6.55%.
In the case of `CCCCCCCCCC[Si](C)(C)CCC(=O)NC(Cc1ccc(C)cc1)c1ccccc1` (centres undefined), the activation was inactive: 4.48%.
With `Cc1ccc(C)c(S(=O)(=O)c2nnn3c2nc(NCc2ccc4c(c2)OCO4)c2sccc23)c1`, the activation was inactive: -8.37%.
Consider `CN(C)c1ccc(NC(=O)Cn2c(SCc3ccccc3F)nc3cccnc32)cc1`, for which the activation was inactive: 27.5%.
The same measure for `O=c1c2sc3ccccc3c2n(Cc2ccccc2F)c(=O)n1CCc1ccccc1`: inactive: -2.03%.
The result for `CN(C)c1ccc(C(CNS(=O)(=O)c2ccc(Br)cc2)N2CCOCC2)cc1` (centres undefined) reads inactive: -28.2%; that for `COc1ccc(-c2nnc(SCC(=O)Nc3ccc(F)cc3)s2)cc1`, inactive: 9%.
The result for `CCc1ccc(-c2ccc(C(=O)Oc3ccc(Br)cc3)cc2)nc1` reads inactive: 12.3%; that for `O=C(c1ccc2c(Cl)c3c(nc2c1)CCCC3)N1CCN(c2cccc(Cl)c2)CC1`, inactive: -11.1%.
With `Cc1cccc(N2C(=O)CCSC23C(=O)N(Cc2ccc(F)cc2)c2ccccc23)c1` (centres undefined), the activation was inactive: -28.7%.
Turning to `Cc1ccc(-c2c(C(=O)NCCc3ccc(Cl)cc3)oc(=O)c3ccccc23)cc1`, the activation is inactive: -6.26%.
The result for `Cc1c(C)n(C)c2ccc(C(=O)NCCCN3CCCCC3)cc12` reads inactive: -12.5%; that for `COc1ccc(NC(=O)C2=C(C)Nc3nc(SCc4ccccc4)nn3C2c2cc(OC)ccc2OC)cc1` (centres undefined), inactive: 3.49%.
In the case of `Cc1ccc(Cn2ccc(NC(=O)c3cc(-c4ccc(Cl)c(Cl)c4)on3)n2)cc1`, the activation was inactive: -2.1%.
The result for `COCCc1nn2c(=O)cc(COC(=O)c3ccc(C(C)(C)C)cc3)nc2s1` reads inactive: 8.05%; that for `Cc1nnc(SCC(=O)NCc2ccccc2F)c2nn(-c3ccc(Cl)cc3)c(C)c12`, inactive: -8.36%; that for `Cc1ccc(-c2nc(SCc3ccc(Br)cc3)n3[nH]c(=O)cc3n2)cc1`, inactive: 0.837%.
The result for `Cc1ccc(S(=O)(=O)c2nc(-c3ccc(Cl)cc3)oc2N2CCCCCC2)cc1` reads inactive: -32.5%; that for `CCN(CC)S(=O)(=O)c1ccc(C(=O)N=c2sc3cccc(OC)c3n2C)cc1`, inactive: 8.08%.
